In the supplement of paper PMC4967469:

How the values were obtained:
Assay in all cases: Viability of human cancer cell lines after 72 h of drug (GDSC screen)
QL-XI-92 = compound: C=CC(=O)Nc1cc(NC(=O)c2ccc(C)c(NC(=O)c3ccno3)c2)cc(C(F)(F)F)c1 [QL-XI-92]; details: top dose 10.24 µM; top dose inferred
Procedure: (§1)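 Human cancer cell lines in 384-well plates, medium with 10% serum, drug for 72 h over a 256-fold dose range (nine 2-fold or five 4-fold steps up to the top dose). Adherent lines were fixed and stained with the nucleic acid dye Syto60, suspension lines read with resazurin; signal relative to control wells, capped at 0 and 100%. One two-parameter sigmoid per drug and line, fitted in a mixed model over all curves with the slope shared within a line.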

Vinorelbine = compound: CCC1=C[C@@H]2CN(C1)Cc1c([nH]c3ccccc13)[C@@](C(=O)OC)(c1cc3c(cc1OC)N(C)[C@H]1[C@@](O)(C(=O)OC)[C@H](OC(C)=O)[C@]4(CC)C=CCN5CC[C@]31[C@@H]54)C2 [Vinorelbine]; details: top dose 0.064 µM; top dose inferred
Procedure: as §1

AG-014699 = compound: CNCc1ccc(-c2[nH]c3cc(F)cc4c3c2CCNC4=O)cc1 [AG-014699]; details: top dose 5 µM; top dose inferred
Procedure: as §1

XL-184 = compound: COc1cc2nccc(Oc3ccc(NC(=O)C4(C(=O)Nc5ccc(F)cc5)CC4)cc3)c2cc1OC [XL-184]; details: top dose 5.12 µM; top dose inferred
Procedure: as §1

WHI-P97 = compound: COc1cc2ncnc(Nc3cc(Br)c(O)c(Br)c3)c2cc1OC [WHI-P97]; details: top dose 10.24 µM; top dose inferred
Procedure: as §1

Gefitinib = compound: COc1cc2ncnc(Nc3ccc(F)c(Cl)c3)c2cc1OCCCN1CCOCC1 [Gefitinib]; details: top dose 0.5 µM
Procedure: as §1

Phenformin = compound: N=C(N)NC(=N)NCCc1ccccc1 [Phenformin]; details: top dose 4000 µM; top dose inferred
Procedure: as §1

S-Trityl-L-cysteine = compound: N[C@@H](CSC(c1ccccc1)(c1ccccc1)c1ccccc1)C(=O)O [S-Trityl-L-cysteine]; details: top dose 5.12 µM; top dose inferred
Procedure: as §1

EHT 1864 = compound: O=c1cc(CN2CCOCC2)occ1OCCCCCSc1ccnc2cc(C(F)(F)F)ccc12 [EHT 1864]; details: top dose 10 µM; top dose inferred
Procedure: as §1

NU-7441 = compound: O=c1cc(N2CCOCC2)oc2c(-c3cccc4c3sc3ccccc34)cccc12 [NU-7441]; details: top dose 2 µM; top dose inferred
Procedure: as §1

Row | Cell Line | AUC (QL-XI-92) | IC50 (QL-XI-92) [µM] | AUC (Vinorelbine) | IC50 (Vinorelbine) [µM] | AUC (AG-014699) | IC50 (AG-014699) [µM] | AUC (XL-184) | IC50 (XL-184) [µM] | AUC (WHI-P97) | IC50 (WHI-P97) [µM] | AUC (Gefitinib) | IC50 (Gefitinib) [µM] | AUC (Phenformin) | IC50 (Phenformin) [µM] | AUC (S-Trityl-L-cysteine) | IC50 (S-Trityl-L-cysteine) [µM] | AUC (EHT 1864) | IC50 (EHT 1864) [µM] | AUC (NU-7441) | IC50 (NU-7441) [µM]
1 | LS-1034 (large intestine, adherent) | 0.982 | > 10.2 | 0.909 | > 0.064 | 0.972 | > 5 | 0.921 | > 5.12 | 0.986 | > 10.2 | 0.94 | > 0.5 | 0.81 | 2390 | 0.826 | 3.55 | 0.984 | > 10 | 0.983 | > 2
2 | LU-165 (small cell lung carcinoma, suspension) | 0.965 | > 10.2 | 0.894 | > 0.064 | 0.988 | > 5 | 0.969 | > 5.12 | 0.982 | > 10.2 | 0.979 | > 0.5 | 0.903 | > 4000 | 0.949 | > 5.12 | 0.922 | > 10 | 0.988 | > 2
3 | LXF-289 (lung adenocarcinoma, adherent) | 0.966 | > 10.2 | 0.568 | 0.00613 | 0.951 | > 5 | 0.949 | > 5.12 | 0.98 | > 10.2 | 0.984 | > 0.5 | 0.825 | 2350 | 0.663 | 0.901 | 0.969 | > 10 | 0.926 | > 2
4 | MC116 (B-cell lymphoma, suspension) | 0.999 | > 10.2 | 0.61 | 0.00735 | 0.999 | > 5 | 0.984 | > 5.12 | 0.999 | > 10.2 | 0.999 | > 0.5 | 0.395 | 139 | 0.644 |  | 0.998 | > 10 | 0.999 | > 2
5 | MC-CAR (haematopoietic neoplasm, suspension) | 0.789 | 4.01 | 0.661 | 0.0106 | 0.954 | > 5 | 0.895 | 5.09 | 0.942 | > 10.2 | 0.989 | > 0.5 | 0.856 | 2690 | 0.734 | 1.36 | 0.977 | > 10 | 0.923 | > 2
6 | MDST8 (large intestine, adherent) | 0.983 | > 10.2 | 0.817 | 0.0353 | 0.969 | > 5 | 0.956 | > 5.12 | 0.985 | > 10.2 | 0.976 | > 0.5 | 0.927 | > 4000 | 0.869 | 4.64 | 0.833 | 6.35 | 0.956 | > 2
7 | ME-1 (acute myeloid leukaemia, suspension) | 0.959 | > 10.2 | 0.962 | > 0.064 | 0.989 | > 5 | 0.989 | > 5.12 | 0.978 | > 10.2 | 0.969 | > 0.5 | 0.871 | > 4000 | 0.946 | > 5.12 | 0.958 | > 10 | 0.972 | > 2
8 | MFH-ino (soft tissue, adherent) | 0.982 | > 10.2 | 0.563 | 0.00614 | 0.963 | > 5 | 0.975 | > 5.12 | 0.978 | > 10.2 | 0.981 | > 0.5 | 0.949 | > 4000 | 0.557 |  | 0.965 | > 10 | 0.927 | > 2
9 | MFM-223 (breast, adherent) | 0.971 | > 10.2 | 0.984 | > 0.064 | 0.986 | > 5 | 0.818 | 2.84 | 0.981 | > 10.2 | 0.989 | > 0.5 | 0.849 | 2960 | 0.989 | > 5.12 | 0.943 | > 10 | 0.989 | > 2
10 | MHH-PREB-1 (B-cell leukaemia, suspension) | 0.93 | > 10.2 | 0.505 | 0.00413 | 0.985 | > 5 | 0.882 | 4.45 | 0.887 | 9.38 | 0.986 | > 0.5 | 0.242 | 49.8 | 0.743 | 1.45 | 0.915 | > 10 | 0.942 | > 2
11 | ML-2 (acute myeloid leukaemia, suspension) | 0.941 | > 10.2 | 0.489 | 0.00375 | 0.99 | > 5 | 0.932 | > 5.12 | 0.977 | > 10.2 | 0.986 | > 0.5 | 0.348 | 100 | 0.641 | 0.749 | 0.971 | > 10 | 0.987 | > 2
12 | MN-60 (B-cell leukaemia, suspension) | 0.932 | > 10.2 | 0.918 | > 0.064 | 0.988 | > 5 | 0.973 | > 5.12 | 0.962 | > 10.2 | 0.986 | > 0.5 | 0.66 | 709 | 0.969 | > 5.12 | 0.976 | > 10 | 0.988 | > 2
13 | MPP-89 (mesothelioma, adherent) | 0.977 | > 10.2 | 0.887 | > 0.064 | 0.977 | > 5 | 0.78 | 2.8 | 0.929 | > 10.2 | 0.967 | > 0.5 | 0.979 | > 4000 | 0.93 | > 5.12 | 0.973 | > 10 | 0.887 | > 2
14 | MS-1 (small cell lung carcinoma, suspension) | 0.873 | 8.13 | 0.897 | > 0.064 | 0.981 | > 5 | 0.964 | > 5.12 | 0.98 | > 10.2 | 0.967 | > 0.5 | 0.569 | 377 | 0.754 | 1.56 | 0.951 | > 10 | 0.986 | > 2
15 | MY-M12 (leukaemia, suspension) | 0.548 | 0.879 | 0.617 | 0.00876 | 0.874 | > 5 | 0.503 | 0.326 | 0.931 | > 10.2 | 0.976 | > 0.5 | 0.69 | 916 | 0.622 | 0.728 | 0.92 | > 10 | 0.927 | > 2
16 | MZ1-PC (pancreas, adherent) | 0.911 | > 10.2 | 0.51 | 0.00428 | 0.905 | > 5 | 0.727 | 1.68 | 0.899 | > 10.2 | 0.978 | > 0.5 | 0.516 | 280 | 0.745 | 1.95 | 0.977 | > 10 | 0.973 | > 2
17 | MZ2-MEL (melanoma, adherent) | 0.883 | > 10.2 | 0.767 | 0.0277 | 0.96 | > 5 | 0.964 | > 5.12 | 0.903 | > 10.2 | 0.979 | > 0.5 | 0.803 | 2390 | 0.834 | 4.17 | 0.964 | > 10 | 0.943 | > 2
18 | Mo-T (hairy cell leukaemia, suspension) | 0.861 | 8.94 | 0.981 | > 0.064 | 0.941 | > 5 | 0.972 | > 5.12 | 0.956 | > 10.2 | 0.986 | > 0.5 | 0.602 | 478 | 0.987 | > 5.12 | 0.927 | > 10 | 0.849 | 1.56
19 | NALM-6 (B-cell leukaemia, suspension) | 0.74 | 2.7 | 0.534 | 0.00486 | 0.985 | > 5 | 0.836 | 2.63 | 0.941 | > 10.2 | 0.986 | > 0.5 | 0.26 | 59.4 | 0.545 | 0.417 | 0.937 | > 10 | 0.98 | > 2
20 | NB5 (neuroblastoma, adherent) | 0.982 | > 10.2 | 0.886 | > 0.064 | 0.846 | 3.71 | 0.978 | > 5.12 | 0.969 | > 10.2 | 0.93 | > 0.5 | 0.987 | > 4000 | 0.714 | 1.31 | 0.887 | > 10 | 0.943 | > 2
21 | NB6 (neuroblastoma, adherent) | 0.975 | > 10.2 | 0.83 | 0.0532 | 0.984 | > 5 | 0.946 | > 5.12 | 0.967 | > 10.2 | 0.983 | > 0.5 | 0.972 | > 4000 | 0.789 | 2.86 | 0.983 | > 10 | 0.984 | > 2
22 | NB14 (neuroblastoma, adherent) | 0.978 | > 10.2 | 0.682 | 0.0125 | 0.932 | > 5 | 0.883 | 4.96 | 0.927 | > 10.2 | 0.984 | > 0.5 | 0.977 | > 4000 | 0.977 | > 5.12 | 0.98 | > 10 | 0.932 | > 2
23 | NB17 (neuroblastoma, adherent) | 0.834 | 8.09 | 0.809 | 0.0395 | 0.891 | > 5 | 0.93 | > 5.12 | 0.939 | > 10.2 | 0.984 | > 0.5 | 0.98 | > 4000 | 0.814 | 3.33 | 0.928 | > 10 | 0.98 | > 2
24 | NB69 (neuroblastoma, adherent) | 0.966 | > 10.2 | 0.501 | 0.00403 | 0.707 | 1.1 | 0.907 | > 5.12 | 0.988 | > 10.2 | 0.87 | 0.379 | 0.777 | 1420 | 0.696 | 1.05 | 0.911 | > 10 | 0.93 | > 2
25 | NB-4 (acute myeloid leukaemia, suspension) | 0.835 | 5.08 | 0.296 | 0.00121 | 0.991 | > 5 | 0.968 | > 5.12 | 0.928 | > 10.2 | 0.991 | > 0.5 | 0.771 | 1260 | 0.68 | 0.917 | 0.988 | > 10 | 0.953 | > 2
26 | NCI-H64 (small cell lung carcinoma, suspension) | 0.981 | > 10.2 | 0.526 | 0.00464 | 0.994 | > 5 | 0.981 | > 5.12 | 0.992 | > 10.2 | 0.996 | > 0.5 | 0.984 | > 4000 | 0.737 | 1.22 | 0.99 | > 10 | 0.992 | > 2

Lines with a small IC50 respond at low doses; where the fit passes the top or lowest dose, that dose stands as a limit. For AUC the same curve is integrated over the 256-fold range of doses and scaled to a fraction; values near 1 show little effect. For some assays here: The top dose, if marked as inferred, comes from the curve model; the source does not state it.
